“And” between values parts separate entries of the source, which are not always exact repeats. Equal entries are not always repeated. In all, about 5,300 compounds were measured (“PER2::LUC luminescence relative to vehicle control”: median about 0.96, highest 2% from about 1.3 on). The list shows a part of the results.
Test system: mPer2Luc MEF
Assay: PER2::LUC luminescence relative to vehicle control (fold of vehicle); higher = higher PER2::LUC reporter signal
Details: 10 µM
Method in brief: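 In 384-well plates, ~3000 mPer2Luc reporter mouse embryonic fibroblasts per well were cultured in DMEM with 10% FBS at 37 °C and 5% CO2 for 48 h before compounds from commercial libraries were added at 10 μM. ONE-Glo luciferase readings were taken 24 h and 30 h after treatment. Each value is PER2::LUC luminescence given as fold of vehicle control.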

Row | SMILES | PER2::LUC luminescence (time after treatment 24 h) | PER2::LUC luminescence (time after treatment 30 h)
1 | CC(C)(C)C#Cc1cc(N(C(=O)[C@H]2CC[C@H](C)CC2)[C@H]2CC[C@H](O)CC2)c(C(=O)O)s1 | 1.14 | 1.18
2 | CC(C)N(CCC(=O)c1ccc2ccccc2c1)Cc1ccccc1 | 0.918 | 0.981
3 | CSc1ccc(/C=C2/C(C)=C(CC(=O)O)c3cc(F)ccc32)cc1 | 0.439 | 0.881
4 | COc1ccc([C@H]2Oc3cc(OC)cc(OC)c3C[C@H]2O)cc1 | 0.942 | 0.967
5 | CC[C@]12CCCN3CCc4c(n(c5ccccc45)[C@@](O)(C(=O)OC)C1)[C@@H]32 | 0.811 | 0.723
6 | COc1ccc(CCN(C)CCCC(C#N)(c2ccc(OC)c(OC)c2)C(C)C)cc1OC (racemic) | 0.776 | 0.84
7 | COc1ccc2c(c1)OCC(Cc1ccc(OC)c(OC)c1)C2=O (configuration not stated) | 0.96 | 0.946
8 | C=CC(=O)c1ccc(CCCCCC)cc1 | 1.02 | 0.845
9 | Cn1c(=O)c(F)c(Nc2ccc(I)cc2F)c2c(=O)n(C[C@@H](O)CO)cnc21 | 0.266 | 0.151
10 | CCC[C@@H](NC(=O)N1C(=O)C(CC)(CC)[C@@H]1Oc1ccc(C(=O)N2CCN(C)CC2)cc1)c1ccc2c(c1)OCO2 | 0.821 | 0.798
11 | NCC(=O)N1C[C@H](NC(=O)c2ccccc2)C[C@H]1C(=O)O | 1.04 | 0.699
12 | O=c1[nH]c(=O)n([C@H]2C[C@H](O)[C@@H](CO)O2)cc1/C=C/Br | 0.844 and 0.688 | 0.99 and 0.957
13 | Cc1ccc(O)c([C@H](CCN(C(C)C)C(C)C)c2ccccc2)c1 | 0.848 | 0.859
14 | Cc1nc(N=Nc2ccc(S(=O)(=O)O)cc2S(=O)(=O)O)c(COP(=O)(O)O)c(C=O)c1O | 0.953 | 0.964
15 | CCCCC[C@H](CC(=O)NO)C(=O)N[C@H](C(=O)N1CCC[C@H]1CO)C(C)C | 0.578 | 0.573
16 | CC(=O)OC(C)C[N+](C)(C)C (configuration not stated) | 1.05 | 1.25
17 | CCCCOc1ccc(CC(=O)NO)cc1 | 1.01 | 1.01
18 | NC[C@H]1CC[C@H](C(=O)O)CC1 | 0.757 | 0.973
19 | C=CCc1ccccc1OCC(O)CNC(C)C (configuration not stated) | 0.943 and 0.778 | 0.805 and 0.767

Row | SMILES | PER2::LUC luminescence (time after treatment 24 h) | PER2::LUC luminescence (time after treatment 30 h)
20 | Oc1c(Cl)cc(Cl)cc1Sc1cc(Cl)cc(Cl)c1O | 0.855 and 0.769 | 0.947 and 0.783
21 | COc1ccc2nc3cc(Cl)ccc3c(Nc3cc(CN4CCCC4)c(O)c(CN4CCCC4)c3)c2n1 | 0.715 | 0.746
22 | CN(C)C(=O)N=NC(=O)N(C)C | 1.1 | 0.903
23 | CCN1/C(=C/C(C)=O)Sc2ccc(OC)cc21 | 0.746 | 0.945
24 | C/N=C(/NC#N)NCCSCc1csc(NC(=N)N)n1 | 0.944 | 1.03
25 | Nc1nc(=O)c2c([nH]1)NCC(CNc1ccc(C(=O)N[C@@H](CCC(=O)O)C(=O)O)cc1)N2C=O (some centres not stated) | 1 and 0.696 | 0.941 and 0.777
26 | Cc1c(Cl)cccc1S(=O)(=O)Nc1nc(NCCc2ccccc2)nc2c1CN(Cc1ccccc1)CC2 | 0.881 | 0.794
27 | CC(=O)c1ccc2c(c1)N(CCCN1CCN(CCO)CC1)c1ccccc1S2 | 0.565 | 0.513
28 | O=C(O)c1cc(=O)c2c(OCC(O)COc3cccc4oc(C(=O)O)cc(=O)c34)cccc2o1 | 1.03 and 0.961 | 0.897 and 0.939
29 | O=c1c(O)c(-c2ccccc2)oc2cc(O)cc(O)c12 | 1.24 | 1.34
30 | CCN1CCCC1CNC(=O)c1cc(S(N)(=O)=O)ccc1OC (racemic) | 0.97 | 0.912
31 | CCOc1ccc(Cc2cc([C@@H]3O[C@H](CO)[C@@H](O)[C@H](O)[C@H]3O)ccc2Cl)cc1 | 0.978 and 1.06 | 1.04 and 0.951
32 | COc1cccc2c1C(=O)c1c(O)c3c(c(O)c1C2=O)C[C@@](O)(/C(CO)=N/NC(=O)CCCCCN1C(=O)C=CC1=O)C[C@@H]3O[C@H]1C[C@H](N)[C@H](O)[C@H](C)O1 | 0.416 | 0.357
33 | COC1=C(OC)C(=O)c2ccccc2C1=O | 1.09 | 0.813
34 | CCC(C)CNCC(=O)N1CCc2sccc2C1COc1cccc(C)c1 (configuration not stated) | 0.647 | 0.499
35 | Cc1c(O)cccc1C(=O)N[C@@H](CSc1ccccc1)[C@H](O)CN1C[C@H]2CCCC[C@H]2C[C@H]1C(=O)NC(C)(C)C | 0.811 | 0.8
36 | C[C@H]1CCN(C(=O)CC#N)C[C@H]1N(C)c1ncnc2[nH]ccc12 | 1 | 1.02
37 | CN(C)CCC(c1ccccc1)c1ccccn1 (configuration not stated) | 0.784 | 1.05
38 | Cc1cccc(Nc2nc(-c3ccncc3)cs2)c1 | 0.673 | 0.663

Row | SMILES | PER2::LUC luminescence (time after treatment 24 h) | PER2::LUC luminescence (time after treatment 30 h)
39 | C=CC(C1=CC(=O)C(OC)=CC1=O)c1ccc(O)cc1 (configuration not stated) | 0.816 | 0.863
40 | Nc1ccn([C@@H]2O[C@H](CO)[C@@H](O)[C@H]2O)c(=O)n1 | 0.993 | 0.904
41 | O=C(O)/C=C/C=C/c1ccc2c(c1)OCO2 | 1.07 | 1.03
42 | CC(C)NCCCn1c(Sc2cc3c(cc2I)OCO3)nc2c(N)ncnc21 | 0.108 | 0.054
43 | CC(C)CCC[C@@H](C)[C@H]1CC[C@H]2[C@@H]3CC=C4C[C@@H](O)CC[C@]4(C)[C@H]3CC[C@]12C | 0.926 | 0.923
44 | Nc1nccc2c1ncn2[C@@H]1O[C@H](CO)[C@@H](O)[C@H]1O | 0.924 | 0.982
45 | N[C@@H](Cc1ccc(F)cc1)C(=O)O | 0.979 | 0.832
46 | COc1ccc(-n2nc(CCC(=O)N(C)O)cc2-c2ccc(Cl)cc2)cc1 | 0.853 | 0.925
47 | O=C(O)[C@@H]1C[C@H](CP(=O)(O)O)CCN1 | 1.03 | 0.992
48 | O=P(O)(O)C(O)(Cc1cccnc1)P(=O)(O)O | 0.689 and 0.717 | 0.977 and 0.717
49 | CCCCC#Cc1nc(NC)c2ncn([C@@H]3O[C@H](CO)[C@@H](O)[C@H]3O)c2n1 | 0.992 | 1.01
50 | O=C(O)c1cc(O)c(O)c(O)c1 | 0.88 | 1.04
51 | CCN(CC)C(=O)N1CCN(C)CC1 | 1.12 | 0.953
52 | CC(C)(C)C(O)/C=C/c1ccc2c(c1)OCO2 (configuration not stated) | 0.981 | 0.941
53 | C[C@H]1CC[C@@H](C(C)(C)O)CC2=C1CC[C@@H]2C | 1.46 | 1.05
54 | CC[C@]1(O)C[C@@H]2CN(CCc3c([nH]c4ccccc34)[C@@](C(=O)OC)(c3cc4c(cc3OC)N(C)[C@H]3[C@@](O)(C(=O)OC)[C@H](OC(C)=O)[C@]5(CC)C=CCN6CC[C@]43[C@@H]65)C2)C1 | 0.0879 | 0.136
55 | CC(CCc1ccc(O)cc1)NCC(O)c1ccc(O)cc1 (configuration not stated) | 0.808 | 0.821
56 | CC(=O)[C@H]1CC[C@H]2[C@@H]3CC=C4C[C@@H](OC(=O)CCC(=O)O)CC[C@]4(C)[C@H]3CC[C@]12C | 1.01 | 0.948

Reference: the supplement of paper PMC9334596
